How the values were obtained:
[1] = molecular target: T1, human IL-2 receptor α subunit (human, UniProt P01589 22-240); experiment: ELISA
T1 sequence: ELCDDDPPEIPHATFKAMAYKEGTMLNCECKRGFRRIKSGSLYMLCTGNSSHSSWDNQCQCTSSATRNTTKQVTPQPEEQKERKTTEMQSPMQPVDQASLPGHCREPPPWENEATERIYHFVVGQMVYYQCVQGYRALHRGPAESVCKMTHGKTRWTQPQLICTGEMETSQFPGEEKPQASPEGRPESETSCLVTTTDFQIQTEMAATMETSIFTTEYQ

[2] = molecular target: T2, human IL-2 receptor β subunit (human, UniProt P14784 27-240); experiment: ELISA
T2 sequence: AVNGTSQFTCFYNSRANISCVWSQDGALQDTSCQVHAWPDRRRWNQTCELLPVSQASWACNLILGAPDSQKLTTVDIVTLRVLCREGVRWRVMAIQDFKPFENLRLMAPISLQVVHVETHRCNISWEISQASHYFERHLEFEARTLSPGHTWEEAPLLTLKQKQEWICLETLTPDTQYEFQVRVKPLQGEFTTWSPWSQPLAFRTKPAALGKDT

B1: human wild-type IL-2 with LPETG-tag and histidine tag (ligand)
chain: not shown
EC50 [1]: 13.5 nM | EC50 [2]: 1140 nM

Source: article PMC9980373 (Journal for Immunotherapy of Cancer, 2023)
